# The campaign covered roughly 310,000 compounds. About 14,000 (4.5%) showed an effect of 50% or more. The effect is printed as a negative number. The list shows a part of the results.
# Target: human ether-à-go-go-related gene (hERG) potassium channel (human, UniProt Q12809)
# Experiment: primary screen, population patch clamp on CHO cells stably expressing hERG
# 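Also: peak tail current of the secondary pulse compared with the same well before compound.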
# Chain of human ether-à-go-go-related gene (hERG) potassium channel (Q12809 whole entry, looked up): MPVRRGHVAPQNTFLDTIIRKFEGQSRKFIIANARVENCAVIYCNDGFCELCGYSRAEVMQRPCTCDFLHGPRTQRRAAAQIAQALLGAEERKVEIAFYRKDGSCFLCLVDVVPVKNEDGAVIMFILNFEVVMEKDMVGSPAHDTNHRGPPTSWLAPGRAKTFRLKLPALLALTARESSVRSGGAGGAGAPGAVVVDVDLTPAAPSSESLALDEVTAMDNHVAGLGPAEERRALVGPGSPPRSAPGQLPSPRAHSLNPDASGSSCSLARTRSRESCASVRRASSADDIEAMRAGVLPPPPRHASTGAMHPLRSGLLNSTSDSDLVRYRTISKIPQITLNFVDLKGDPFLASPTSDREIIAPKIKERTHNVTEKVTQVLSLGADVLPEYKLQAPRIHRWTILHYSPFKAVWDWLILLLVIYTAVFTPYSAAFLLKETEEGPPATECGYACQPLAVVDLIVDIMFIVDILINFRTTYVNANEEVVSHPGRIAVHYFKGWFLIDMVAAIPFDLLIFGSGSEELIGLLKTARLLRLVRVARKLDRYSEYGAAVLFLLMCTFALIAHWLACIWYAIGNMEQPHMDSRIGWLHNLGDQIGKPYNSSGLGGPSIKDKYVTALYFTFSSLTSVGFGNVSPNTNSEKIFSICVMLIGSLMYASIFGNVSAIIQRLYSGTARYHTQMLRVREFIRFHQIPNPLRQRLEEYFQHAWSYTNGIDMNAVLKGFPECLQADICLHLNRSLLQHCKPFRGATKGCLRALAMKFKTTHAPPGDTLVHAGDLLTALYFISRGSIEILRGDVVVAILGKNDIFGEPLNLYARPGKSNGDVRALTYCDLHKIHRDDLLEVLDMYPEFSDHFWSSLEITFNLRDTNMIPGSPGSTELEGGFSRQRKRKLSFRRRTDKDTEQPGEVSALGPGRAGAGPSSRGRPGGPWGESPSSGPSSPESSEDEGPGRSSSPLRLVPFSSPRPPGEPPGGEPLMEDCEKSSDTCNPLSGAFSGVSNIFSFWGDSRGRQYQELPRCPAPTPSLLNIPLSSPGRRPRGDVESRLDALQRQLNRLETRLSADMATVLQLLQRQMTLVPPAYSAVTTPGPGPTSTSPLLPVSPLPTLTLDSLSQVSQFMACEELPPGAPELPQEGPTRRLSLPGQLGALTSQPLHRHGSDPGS
row,Structure (SMILES),"hERG current change (%, negative = inhibition) at 10uM [%]"
1,CCN(CC)S(=O)(=O)c1ccc(N/N=C/c2cc(OC)ccc2O)nc1,7.4
2,CC(Sc1ncnc2c1cnn2-c1ccccc1)C(=O)NCC1CCCO1 (stereo not shown),0.0302
3,COCCNC(=O)Cn1ccc2cc(S(=O)(=O)N3CCCCCC3)ccc21,-0.742
4,CCc1nnc(NC(=O)c2cc3c(s2)CCCCC3)s1,46
5,CCC(=O)c1c[nH]c(C(=O)NCCCn2ccnc2)c1,9.18
6,Cc1cc(C)cc(NC(=O)c2cccn2-c2ncc(C(F)(F)F)cc2Cl)c1,-6.07
7,Cc1ccc(S(=O)(=O)Oc2cccc(/C=N/n3cnnc3)c2)cc1,-49
8,CC(=O)N1CCn2c3c(c(=O)c4cc(C)ccc42)CCC31 (stereo not shown),-19.4
9,Cc1cc(-c2[nH]nc3c2C(c2cccc(O)c2)C(C#N)=C(N)O3)c(C)s1 (stereo not shown),-9.13
10,O=C(C1CC(c2ccccc2O)=NO1)N1CCC2(CC1)OCCO2 (stereo not shown),8.58
11,Cc1ccc(SCC(=O)Nc2cccc(NC(=O)c3ccco3)c2)cc1,-6.29
12,COc1cc(NC(=O)c2cc3c(=O)n(C)c4ccccc4c3n2C)cc(OC)c1OC,18.2
13,COCCn1c(SCC(=O)NC2(C#N)CCCCC2)nc2ccccc2c1=O,-49
14,O=C1CCCC2=C1C(c1ccccc1)CC(=O)N2c1ccc(F)cc1F (stereo not shown),-5.22
15,Cn1c(=O)oc2cc(S(=O)(=O)NCc3ccccc3)ccc21,1.38
16,CN(CC(=O)NCCCc1ccccc1)Cc1ccc(Br)cc1,-13.9
17,COc1ccc(C)cc1NC(=O)C(OC(=O)c1cc(C)oc1C)c1ccccc1 (stereo not shown),2.99
18,CCOc1ccccc1NC(=O)N1CCc2ccccc2C1,7.67
19,CC(=O)Nc1nn(C)c2nc3cc(C)ccc3cc12,4.11
20,O=C1Oc2ccccc2C(=O)/C1=C/c1ccccc1O,10.6
21,Cc1ccc(C(=O)N2CCN(c3ccccn3)CC2)cc1[N+](=O)[O-],9.02
22,Cc1ccc(C2Nc3cccc4cccc(c34)N2)s1,-4.53
23,COCc1cc(C)nc(N2CCCCC2)c1C#N,10.5

row,Structure (SMILES),"hERG current change (%, negative = inhibition) at 10uM [%]"
1,Cc1ccc(NC(=O)c2ccccc2Cl)c(Cl)c1,-6.84
2,COc1ccc(NC(=O)/C(C#N)=C/c2ccc(OCCN3CCOCC3)c(OC)c2)c(OC)c1,11.3
3,CCC(=O)N1C(Cc2ccccc2)COC1(C)C (stereo not shown),-73.4
4,Cn1c(N)cc(=O)n(Cc2ccccc2)c1=O,6.48
5,COc1ccc(OC)c2sc(N3CCN(C(=O)c4ccc([N+](=O)[O-])s4)CC3)nc12,-41.9
6,O=C(O)C(=O)O.c1csc(-c2nnc(N3CCCCCC3)c3ccccc23)c1,-20.9
7,O=C(CN1CCOCC1)Nc1ccccc1C(=O)Nc1ccccc1,10.4
8,CCOC(=O)c1sc(NC(=O)CSc2nc(-c3ccco3)cc(C(F)(F)F)n2)c(C(=O)OC)c1C,7.16
9,COc1cc(C)c(Cl)c(C)c1S(=O)(=O)NC1CC(C)(C)NC(C)(C)C1,7.91
10,Cc1ccccc1OCc1occc1C(=O)Nc1cccc(-n2cnnn2)c1,-7.36
11,O=C(COC(=O)C1CCN(c2ccc(C(F)(F)F)cn2)CC1)NCc1ccc(F)cc1,-27
12,COC(=O)CCCC(=O)Nc1ccc(Br)cc1,8.16
13,OCC1CCCCN1C(=S)NCc1ccco1 (stereo not shown),-2.65
14,Cn1c(=O)[nH]c(=O)c2c1nc(N1CCN(Cc3ccccc3)CC1)n2CCSc1ncccn1,-25.7
15,Cc1ccc(NC(=S)NCCSc2ccc(Cl)cc2)c(C)c1,4.92
16,O=C(NN1C(=O)c2ccccc2NC1c1ccccn1)c1ccc(Br)cc1 (stereo not shown),-42.6
17,CCn1cc(CN2CCC(n3nccc3NC(=O)Cc3ccccc3)CC2)c(C)n1,-0.831
18,NC(=O)COc1ccc(NC(=O)CC23CC4CC(CC(C4)C2)C3)cc1,6.92
19,Cc1csc(NC(CO)c2nc3ccccc3n2CCOCCO)n1 (stereo not shown),11.1
20,Cn1cc(Br)c(C(=O)NC2C3CC4CC(C3)CC2C4)n1 (stereo not shown),-22.1
21,O=C(COc1ccc(Cl)cc1Cl)Nc1ccc(CN2CCCCC2)cc1,-67.9
22,CSc1cccc(NC(=O)CCc2ccccc2)c1,9.54
23,CC(=O)N(Cc1c(C#N)c2ccccc2n1C)c1ccccc1,-3.78

row,Structure (SMILES),"hERG current change (%, negative = inhibition) at 10uM [%]"
1,COc1ccccc1C(=O)CC(=O)C(=O)Nc1cccc([N+](=O)[O-])c1C,8.79
2,O=C(NCCCCCCNC(=O)c1ccccc1O)c1ccccc1O,14.8
3,CCOc1nc(NC(=O)NC(=O)c2ccccc2)nc(-c2ccccc2)n1,-2.07
4,CC(C)c1ccc(C(=O)NN2CCOCC2)cc1,-1.79
5,CCCn1c(=O)c2sccc2n2c(CCCC(=O)NCC3CCCO3)nnc12 (stereo not shown),14.1
6,CC(C)(C)C(=O)N1c2ccccc2CCc2ccccc21,-0.0543
7,Cl.Clc1cccc(CN2C3=NCCCN3c3ccccc32)c1,-75.4
8,Cc1ccc(C)c(/C=N/NC(=S)NC(C)C)c1,30.3
9,Cc1ccc(OCCSc2nc3ccccc3n2CCC(=O)O)cc1,9.74
10,Cc1[nH]c2ccccc2c1CCN,8.43
11,CC(=O)Nc1ccc(OCCOc2ccc(NC(C)=O)cc2)cc1,19.3
12,COc1ccc(-c2ccccc2)cc1NC(=O)c1ccncc1,-13.7
13,COc1ccc2c(c1)c1ncn(Cc3ccc(F)cc3)c(=O)c1n2C,20.8
14,CCCN1C(=O)/C(=c2\s/c(=C3\C=Cc4ccccc4N3CC)c(=O)n2-c2ccccc2)SC1=S,8.95
15,Cc1nc2sc(-c3ccccc3)cc2c(=O)n1/N=C/N(C)C,-0.737
16,Cc1ccc(Cl)cc1NC(=O)COC(=O)c1ccc(COc2ccc3c(C)cc(=O)oc3c2)cc1,8.58
17,COc1ccc(/C(C)=C2\SC(=S)N(CCC(=O)O)C2=O)cc1,7.7
18,CCOc1cc(C2C3=C(CC(C)(C)CC3=O)OC3=C2C(=O)CC(C)(C)C3)cc([N+](=O)[O-])c1O,-11.9
19,CCOC(=O)c1cc2c(cn1)[nH]c1ccccc12,-3.84
20,COc1ccccc1/C=C/c1nc2ccc(OC(C)=O)cc2c(=O)o1,11.9
21,COc1ccc(S(=O)(=O)c2c(O)c3ccc(C(=O)Nc4ccccc4Cl)cc3[nH]c2=O)cc1,5.81
22,C=CCn1c(SCc2nc3ccccc3[nH]2)nnc1-c1cccc(OC)c1,-12.2
23,CCOC(=O)c1ccc(NC(=O)c2nc(SC)ncc2Cl)cc1,12.6

row,Structure (SMILES),"hERG current change (%, negative = inhibition) at 10uM [%]"
1,Cc1cc(NC(=O)c2ccccc2F)nc2c1c(=O)oc1ccccc12,15.1
2,CCOc1ccc(C(F)(F)F)cc1NC(=O)COc1ccc(C(F)(F)F)cc1[N+](=O)[O-],21.5
3,NC(=NCCc1ccc(Cl)cc1)NS(=O)(=O)c1ccc(F)cc1,6.7
4,Cc1cc(C)n2cc(CSc3nnc(-c4ccccc4)o3)nc2n1,-38.3
5,CCN(CC)C(=O)C1CCCN(Cc2nc(-c3cccs3)no2)C1 (stereo not shown),0.945
6,Cc1cc(=O)oc2c(C)c(OC3CCCCC3=O)ccc12 (stereo not shown),13.8
7,CC(C)CCNC(=O)CCCc1ccccc1,14.5
8,COc1ccc(F)cc1C(=O)C1CCCN(Cc2ccc(Oc3ncccn3)cc2)C1 (stereo not shown),-64.2
9,O=C(NNc1cccc(Cl)n1)Nc1ccccc1Cl,20.9
10,CC(=O)n1nc(-c2cccnc2)nc1NCc1cccs1,-8.03
11,O=C(N/N=C/c1ccc([N+](=O)[O-])o1)c1cc(-c2cccc(Br)c2)nc2ccccc12,4.18
12,N#Cc1c(-c2ccccc2)[nH]c(=S)[nH]c1=O,17.1
13,CC(C)CSc1ncc(-c2cccc(C(F)(F)F)c2)cn1,-7.1
14,Cc1ccc(N)c(C(=O)c2ccccc2)c1,-18.7
15,COc1ccc2cc(C(=O)Nc3ccc(Cl)cc3)sc(=O)c2c1OC,7.97
16,Cc1nc2c(C)cccc2cc1C(=O)N/N=C/c1ccc(C(=O)O)cc1,26.1
17,CCC(CC)NC(=O)c1ccc2nc[nH]c2c1,4.63
18,CC(C)Sc1n[nH]c(=O)n1-c1ccccc1,7.72
19,O=C(O)CC1(c2ccccc2)C(=O)c2ccccc2C1=O,16.9
20,COc1ccc(S(=O)(=O)N2CCCCC2)cc1NC(=O)CN(C)C1CCCCC1,-8.17
21,COc1ccccc1/C=C1\SC(N2CCC(C)CC2)=NC1=O,-14.5
22,Cc1c(NC2=NC3(CCCCC3)Cc3ccccc32)c(=O)n(C)n1-c1ccccc1,-29.8

# Source: article PMC4336329 (PLoS ONE, 2015)
